Test results as given in PubChem BioAssay AID652104 (National Center for Advancing Translational Sciences (NCATS), 2013).
The whole screen tested about 410,000 compounds, of which about 7,200 (1.8%) were called active. The shares of active, inactive and inconclusive entries below differ from those in the screen. Calls come from the whole dose curve; as a rule, active = well fitted activation curve with a large enough effect; inconclusive = small, poorly fitted or top-dose-only effect, or another doubt; inactive = no such curve, though single readings can be large or run the other way. Potencies of inconclusive entries are left out as doubtful fits.

Experiment: qHTS of TDP-43 Inhibitors; note: nearly all actives have a fitted effect of over 50% in size; for growth rescue (activation): % of control where 0% means no effect
Conditions: TDP-43 expressing yeast growth rescue, BacTiter-Glo, 24 h; growth rescue (activation): at 46.1 µM (top of the series) unless noted
Method in brief: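 Growth rescue of TDP-43-toxic yeast measured as ATP luminescence (BacTiter-Glo). Cells grown to mid-log in raffinose, induced in galactose at OD600=0.02, exposed to compound 24 hr at 30 deg C.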
Potency is the fitted concentration of half-maximal effect; tags give direction and shape of the fitted curve.

**Q.** Which Potency does the source give for `COc1ccc(C(=O)/C=C/C(=O)N(Cc2ccc(F)cc2)C(C(=O)NC2CCCCC2)c2ccncc2)c(O)c1` (configuration not stated) here?
**A.** Its Potency is active: 20 µM.

**Q.** With `Cc1cc(N2CCOCC2)c(F)cc1C(=O)c1ccccc1` as the compound, how does the Potency read?
**A.** The Potency was inconclusive [activator, partial curve].

**Q.** Which Potency does the source give for `O=C(Nc1ccccc1F)N1CCc2ccccc2C1` here?
**A.** Its Potency is inconclusive [activator, single point].

**Q.** For `COc1cc(C(=S)N2CCOCC2)ccc1OC(=O)c1ccccc1C`, which Potency is on record?
**A.** Its Potency is inconclusive [activator, single point].

**Q.** For `Cc1[nH]c2c(Br)cccc2c1[C@H]1[C@@H](CC#N)C1(C)C`, which Potency is on record?
**A.** Its Potency is active: 22.4 µM.

**Q.** Which Potency does the source give for `O=C(NCCCN1CCCC1=O)NC1CCCCC1` here?
**A.** The Potency was inconclusive [activator, full curve, poor fit].

**Q.** For `C/C(=N\Nc1ccc([N+](=O)[O-])cc1)c1ccco1`, which Potency is on record?
**A.** Its Potency is inconclusive [activator, full curve, poor fit].

**Q.** With `O=C(NCc1ccc(Cl)cc1)c1ccc2c(Cl)c3c(nc2c1)CCCC3` as the compound, how does the Potency read?
**A.** Its Potency is inconclusive [activator, full curve].

**Q.** With `CCOc1ccc(C(=O)Nc2c3c(nn2-c2ccccc2)CS(=O)(=O)C3)cc1` as the compound, how does the Potency read?
**A.** Its Potency is inconclusive [activator, full curve, poor fit].

**Q.** For `Cc1cc(C)n(CC(O)COc2ccc(F)cc2)n1` (configuration not stated), which Potency is on record?
**A.** Its Potency is inconclusive [activator, partial curve, poor fit].

**Q.** For `C=CCn1c(SCc2ccccc2C#N)nnc1-c1cc(Br)ccc1O`, which Potency is on record?
**A.** Its Potency is inconclusive [activator, single point].

**Q.** Which Potency does the source give for `O=S(=O)(c1ccccc1)N1CCN=C1SCc1ccc(Cl)cc1` here?
**A.** The Potency was inconclusive [activator, partial curve].

**Q.** For `COc1cccc(S(=O)(=O)Nc2ccc3c(c2)[C@H]2C[C@H](CC(=O)N[C@@H](C)c4ccccc4)O[C@H](CO)[C@H]2O3)c1`, which Potency is on record?
**A.** Its Potency is inconclusive [activator, partial curve, poor fit].

**Q.** With `COc1ccc(CCNC(=O)COC(=O)c2cnc(C)cn2)cc1` as the compound, how does the “growth rescue (activation)” value read?
**A.** Its value is inactive: 8.65%.

**Q.** For `CN1C(=O)[C@H]2[C@@H](c3ccc(C(F)(F)F)cc3)N[C@]3(CCCN(Cc4ccc(C(F)(F)F)cc4)C3=O)[C@H]2C1=O`, which Potency is on record?
**A.** Its Potency is inconclusive [activator, single point].

**Q.** For `CCCN(Cc1cccs1)C(=O)Nc1cc(Cl)ccc1C`, which Potency is on record?
**A.** Its Potency is inconclusive [activator, single point].

**Q.** Which Potency does the source give for `CCN(C(=S)Nc1ccc(C(C)=O)cc1)C1CCCCC1` here?
**A.** Its Potency is active: 22.4 µM.

**Q.** Which Potency does the source give for `O=C(COC(=O)c1ccc(Cl)nc1)NCCc1ccc(F)cc1` here?
**A.** Its Potency is inconclusive [activator, partial curve, poor fit].

**Q.** For `CCCCCCNc1nc(NCc2ccco2)nc(OCC)n1`, which Potency is on record?
**A.** The Potency was inconclusive [activator, single point].

**Q.** For `CC(=O)N1CCN(c2ccccc2NC(=O)COc2ccc(Cl)cc2Cl)CC1`, which Potency is on record?
**A.** Its Potency is inconclusive [activator, single point].

**Q.** Which “growth rescue (activation)” value does the source give for `COc1cc(C2(C)SCCCS2)cc(OC)c1OC` here?
**A.** Its value is inactive: -7.21%.

**Q.** With `c1ccc(Cc2c(-c3ccccc3)nc3c4ccccc4ccn23)cc1` as the compound, how does the Potency read?
**A.** The Potency was inconclusive [activator, partial curve].

**Q.** Which “growth rescue (activation)” value does the source give for `COc1ccc(C)cc1NC(=O)CN1c2ccccc2S(=O)(=O)c2ccccc21` here?
**A.** Its value is inactive: 7.3%.

**Q.** Which Potency does the source give for `CC(=O)Nc1sc(C)c(C)c1C(=O)OCCOc1ccccc1` here?
**A.** Its Potency is inconclusive [activator, single point].

**Q.** For `Cc1nnc(N2C(=O)c3oc4ccccc4c(=O)c3C2c2ccc(C(C)(C)C)cc2)s1` (configuration not stated), which Potency is on record?
**A.** Its Potency is inconclusive [activator, partial curve].

**Q.** Which Potency does the source give for `CCc1ccc(NC(=O)CSc2nc3ccccc3nc2Cc2ccc(C)cc2)cc1` here?
**A.** Its Potency is inconclusive [activator, partial curve].

**Q.** Which Potency does the source give for `CCNc1nc(Sc2ccc(C)cc2)cc(C(F)(F)F)n1` here?
**A.** The Potency was inconclusive [activator, single point].

**Q.** For `CCn1c(/C=C/c2ccc(O)c(O)c2)nc2ccccc2c1=O`, which “growth rescue (activation)” value is on record?
**A.** Its value is inactive: 6.1%.

**Q.** Which Potency does the source give for `Cc1nc(N2CCCC2)ncc1C(=O)NCc1cccc(Cl)c1` here?
**A.** The Potency was active: 14.1 µM.

**Q.** For `CCOc1ccccc1CNC(=O)CCn1c(=O)c2cccn2c2ccc(F)cc21`, which “growth rescue (activation)” value is on record?
**A.** The value was inactive: 16.2%.

**Q.** Which Potency does the source give for `Cc1ccc(CNc2nc(-c3ccco3)nn2S(C)(=O)=O)cc1` here?
**A.** Its Potency is inconclusive [activator, partial curve, poor fit].

**Q.** With `COc1ccc(NC(=O)C2COc3ccccc3C2)cc1Cl` (configuration not stated) as the compound, how does the Potency read?
**A.** The Potency was inconclusive [activator, partial curve].

**Q.** Which Potency does the source give for `COCCn1c(C)cc(/C=N/NC(=O)c2cc3ccccc3cc2O)c1C` here?
**A.** The Potency was inconclusive [activator, partial curve].

**Q.** With `COc1cccc(CNC(=O)C(=O)NCCC2CCCCN2S(=O)(=O)c2ccc(C)cc2)c1` (configuration not stated) as the compound, how does the Potency read?
**A.** The Potency was inconclusive [activator, partial curve].

**Q.** For `COc1cc2c(=O)c(C(=O)c3ccc(C)c(C)c3)cn(Cc3ccccc3F)c2cc1OC`, which Potency is on record?
**A.** The Potency was inconclusive [activator, partial curve].

**Q.** Which Potency does the source give for `CSc1nc2nccc(-c3ccc(Oc4ccccc4)cc3)n2n1` here?
**A.** Its Potency is inconclusive [activator, single point].

**Q.** Which Potency does the source give for `O=C(Oc1ccc2c(c1)OCO2)C12CC3CC(CC(C3)C1)C2` here?
**A.** Its Potency is inconclusive [activator, partial curve].

**Q.** For `Cc1cccc(C(=O)CC(=O)c2cc(Cl)ccc2O)c1`, which Potency is on record?
**A.** The Potency was inconclusive [activator, partial curve, poor fit].

**Q.** Which “growth rescue (activation)” value does the source give for `O=C(CCc1ccccc1)Nc1sc2c(c1C(=O)O)CCCC2` here?
**A.** The value was inactive: -4.87%.

**Q.** For `ON=C1c2ccccc2-c2ccc(O)cc21`, which “growth rescue (activation)” value is on record?
**A.** Its value is inactive: -0.314%.

**Q.** For `COCC1CCCN(C(=O)c2ccc3nc(Cc4cccc(Cl)c4)oc3c2)C1` (configuration not stated), which Potency is on record?
**A.** Its Potency is inconclusive [activator, partial curve, poor fit].

**Q.** With `COc1cccc(CNc2nc3cc(-c4ccccc4CO)sc3c(=O)n2C)c1` as the compound, how does the growth rescue (activation) read?
**A.** Its growth rescue (activation) is inconclusive: 47.1% [activator].

**Q.** For `CCOc1ccc(CCNC(=O)C2CCN(c3nnc(-n4cccc4)s3)CC2)cc1`, which Potency is on record?
**A.** Its Potency is inconclusive [activator, partial curve].

**Q.** For `COc1ccccc1NC(=O)CSc1nccc(-c2ccco2)n1`, which Potency is on record?
**A.** Its Potency is active: 15.8 µM.

**Q.** Which Potency does the source give for `COc1cc(NC(=O)C2CCCCC2)c2ncccc2c1` here?
**A.** The Potency was inconclusive [activator, single point].

**Q.** With `O=C(Cc1ccc(F)cc1)Nc1c(C(=O)N2CCN(c3ncccn3)CC2)oc2ccccc12` as the compound, how does the Potency read?
**A.** The Potency was inconclusive [activator, partial curve].

**Q.** For `Brc1ccc(Cn2c(-c3cncs3)nc3ccccc32)cc1`, which Potency is on record?
**A.** The Potency was inconclusive [activator, full curve].

**Q.** For `CC(=O)N(CC(C)C(=O)O)c1c(I)cc(I)c(N)c1I` (configuration not stated), which Potency is on record?
**A.** Its Potency is inconclusive [activator, partial curve, poor fit].

**Q.** For `COc1ccccc1NC(=O)CSc1nnc(-c2ccccc2C)o1`, which Potency is on record?
**A.** The Potency was active: 20 µM.

**Q.** With `COc1ccccc1CCC(=O)OCc1csc(CC(=O)Nc2ccccc2C)n1` as the compound, how does the Potency read?
**A.** The Potency was inconclusive [activator, partial curve].

**Q.** Which “growth rescue (activation)” value does the source give for `COc1cc(NC(=O)C2CC(c3c(F)cccc3Cl)=NO2)c(OC)cc1Cl` (configuration not stated) here?
**A.** Its value is inactive: -10.3%.

**Q.** Which Potency does the source give for `O=C1/C(=C/c2cccc([N+](=O)[O-])c2)CCc2ccccc21` here?
**A.** The Potency was active: 22.4 µM.

**Q.** For `CCCCCNC(=O)C(c1ccc(OC)cc1)n1c(=O)c(-c2cc3ccccc3[nH]2)nc2ccccc21` (configuration not stated), which Potency is on record?
**A.** The Potency was inconclusive [activator, full curve, poor fit].

**Q.** Which Potency does the source give for `O=C(COc1ccc(F)cc1Br)NCC1(N2CCOCC2)CCCCC1` here?
**A.** The Potency was inconclusive [activator, full curve, poor fit].

**Q.** Which Potency does the source give for `Fc1cccc(/C=C2\CCCC3=C2NC(=S)NC3c2cccc(F)c2)c1` (configuration not stated) here?
**A.** Its Potency is inconclusive [activator, single point].

**Q.** Which “growth rescue (activation)” value does the source give for `COc1ccc(CN2C(=O)C(CC(=O)NC3CCCC3)CC(C(=O)N(C)C)=C2C)cc1` (configuration not stated) here?
**A.** Its value is inactive: 0%.

**Q.** For `CCOC(=O)[C@]12CCCC=C1N(CCC1=CCCCC1)C(=O)[C@H](CC(=O)NCCC(C)C)C2`, which Potency is on record?
**A.** Its Potency is active: 25.1 µM.

**Q.** With `CC1Cn2c(nnc2-c2cccc(N)c2)S1` (configuration not stated) as the compound, how does the Potency read?
**A.** The Potency was inconclusive [activator, partial curve].

**Q.** With `O=C(/C=C/c1ccc(Cl)cc1Cl)NCc1ccco1` as the compound, how does the Potency read?
**A.** The Potency was inconclusive [activator, single point].

**Q.** For `Cn1ccc(-c2ccccc2)c(C#N)c1=O`, which growth rescue (activation) is on record?
**A.** The growth rescue (activation) was inactive: -1.4% [at 0.397 µM].

**Q.** With `CCCn1c(C)cc(C(=O)COc2ccc(-c3nnco3)cc2)c1C` as the compound, how does the Potency read?
**A.** Its Potency is active: 28.2 µM.

**Q.** With `COc1ccc(NC(=O)N(C)[C@H]2C[C@H]3c4[nH]c5ccc(-c6cccc(C)c6)cc5c4CCN3C[C@H]2[C@H](C)O)cc1` as the compound, how does the Potency read?
**A.** Its Potency is inconclusive [activator, single point].

**Q.** For `CCOC(=O)N1CCN(C(=O)CSc2nc3c(cnn3-c3ccc(Cl)cc3)c(=O)[nH]2)CC1`, which Potency is on record?
**A.** The Potency was inconclusive [activator, full curve, poor fit].

**Q.** For `Cc1nnc(C)n1-c1ccc(C(=O)Nc2cccc(Br)c2)cc1`, which “growth rescue (activation)” value is on record?
**A.** Its value is inactive: 3.68%.

**Q.** For `COc1ccccc1NS(=O)(=O)c1cc(-c2cc(C)no2)ccc1OC`, which Potency is on record?
**A.** Its Potency is inconclusive [activator, single point].

**Q.** With `COc1ccc(S(=O)(=O)NCCc2ccc(F)cc2)cc1` as the compound, how does the Potency read?
**A.** The Potency was inconclusive [activator, partial curve].

**Q.** Which Potency does the source give for `O=C1c2ccccc2C(Nc2ccc3c(c2)OCCO3)N1Cc1ccc2c(c1)OCO2` (configuration not stated) here?
**A.** The Potency was inconclusive [activator, single point].
